Test results as given in the RNAGym collection of RNA variant scans (doi:10.7554/elife.90254).
Read counts are not given, so values of variants with three or more changes are uncertain.

B1: LINE1-mini (parent)
chain: GGCAGAGCUCAACACAGCGUGGCAAAGUGGCUGUGGCUAGACUGCC

Variants of: B1
Test: self-cleavage, relative activity (ratio to wild type); higher = more cleavage; in vitro, sequencing; the parent is a self-cleaving ribozyme

Variant	self-cleavage
GGCAUAGCUCAACACAGCGUGUCAAAGCGGCUGUGGCUAGACUGCC	0.04
GGCAUAGCUCAACACAGCGUGGCAAAGUUGCUGUGGCUAAACUGCC	0.06
GGCAUAGCUCAACACAGCGUGGCAAAGUAGCUGUGGGUAGAAUGCC	0.01
GGCAUAGCACAACCCACCGUGGCAAAGUGGCUGUGGCUAGACUGCC	0.12
GGCAUAGCUCAACACAGCGUGUCAAAGUGGCUGUGGCAAGACUGCC	0.07
GGCAUAGCUCAACACAGCGUGGCAAAGUUGCGGUGGCUAGACUGCC	0.05
GGCAUAGCUCAACACAGCGUGGCAAAGUGUCUGGGGGUCGACUGCC	0.01
GGCAUAGCUCAACACAGCGUGGCAAAGUUGCUGAGGCUAGACUGCC	0.05
GGCAUAGCUCAACACAGCGUGGCAAAGUUGCUGGGGCUAGACUGCC	0.16
GGCAUAGCUCAACACAGCGUGCCAAAGUGGCUGUGGCUAGUCUGCC	0.04
GGCAUAGCUCAACACAGCGUGGCAAAGUGACUGUGCCUAGACUGCC	0.05
GGCAUAGCUCAACACAGCGUUGCAAAGUGGCGGUGGCUAGACUGCC	0.03
GGCAUAGCUCAACACAGCGUGUCAAACUGGCUAUGGCUAGACUGCC	0.14
GGCAUAGCUCAACACAGCGUGGCAAAGUCGCUGUGGCUAGUCUGCC	0.03
GGCAUAGCUCAACACAGCGUGGCAAAGUUGCUGUGGCAAGACUGCG	0.17
GGCAUAGCUCAACACAGCGUGGCAAAGUAGAUGUAGCUUGACUGCC	0.07
GGCAUAGCUCAACACAGCGUGGCAAAUUGCCUGUGGCUGGACUGCC	0.06
GGCAUAGCUCAACACAGCGUGCCAAAGUGGCUGUGGCUAGACCGCC	0.09
GGCAUAGCUCAACACAGCGUGGCAAAGUGUCUGUGGUUAGACUGAC	0.26

Variant	self-cleavage
GGCAUAGCUCAACACAGCGUGGCAAACUGGCGGUGGCUAGACUGCC	0.02
GGCAUAGCUCAACACAGCGUGGCAAAGUGGCUCUGGGAAGACUGCC	0.04
GGCAUAGCUCAACACAGCGUGGCAAAGUGGCUGUAGCGACACUGCG	0.01
GGCAUAGCUCAACACAGCGUGACAAAGUGGCUGUGCCUAGACUGCC	0.05
GGCAUAGCACACCACAUCGUGGCAAAGUGGCUGUGGCUAGACUGCC	0.02
GGCAUAGCUCAACACAGCGUGGCAAAGUGACUGUAGCUAGACUGCC	0.07
GGCAUAGCUCAACACAGCGUGGCAAAGUGGCUGUGGCUAUACUGAC	0.04
GGCAUAGCUCAACACAGCGUGGCAAAGUAGCUGUGGCUAGACUGGC	0.02
GGCAUAGCUCAACACAGCGUGGCAAAGUGGCUGUGGCUACAAUGCC	0.03
GGCAUAGCUCAACACAGCGUGUCAAAGUGGCUGUGGCUUGACUGCC	0.05
GGCAUAGCUCAACACAGCGUGGCAAAAUGGCUGUAGGUAGACUGCC	0.03
GGCAUAGCUCAACACAGCGUGGCAAAGUGGCUAUGGCCAGACUGCC	0.01
GGCAUAGCUCAACACAGCGUGGCAAAGUGGCUGUUGCUAGACUGUC	0.06
GGCAUAGCUCAACACAGCGUGGCAAAGUGGCUGUUGCUAGACUGGC	0.07
GGCAUAGCUCAACACAGCGUGGCAAAGUGGCUGUGGCUAGACUACG	0.12
GGCAUAGCUCAACACAGCGUGGCAAAGUAGCUGUGCCUAGACUGCC	0.04
GGCAUAGCUCAACACAGCGUGUCAAAGUUGCUGUGGCUUGACUGCC	0.2
GGCAUAGCUCAACACAGCGUUGCAAAGUGGCGGUGGCUAGAAUGCC	0.05
GGCAUAGCUCAACACAGCGUGGCAAAGUGGCUUUUGCUAGACUGCC	0.04

Variant	self-cleavage
GGCAUAGCUCAACACAGCGUGGCAAAGUUGCUGUUGCUAGACUGCC	0.05
GGCAUAGCUCAACACAGCGUGGCAAACUGCCUGUGGUUAAACUGCC	0.26
GGCAUAGCUCAACACAGCGUGUCAAAGUGGCUGUGGCUAGAUUGCC	0.15
GGCAUAGCUCAACACAGCGUGGCAAACUGGCUGUGGCUUGACUGCC	0.02
GGCAUAGCUCAACACAGCGUGGCAAAAUGGCUGUCGCUAGACUGCC	0.03
GGCAUAGCUCAACACAGCGUGGCAAAGUGGCUAGCGCUAGACUGAC	0.01
GGCAUAGCUCAACACAGCGUGGCAAAGUAGCUGUGGAUAGACUGCC	0.01
GGCAUAGCUCAACACAGCGUGGCAAACUGGCUGUGGCUAGACCGCA	0.01
GGCAUAGCUCAACACAGCGUUGCAAAGUGGCGGUGGCUAGGCUGCC	0.02
GGCAUAGCUCAACACAGCGUGGCAAAUUGUCUGUGGCUAUACUGCC	0.01
GGCAUAGCUCAACACAGCGUGACAAAGUGUCUGUGGGUAGACUGCC	0.08
GGCAUAGCUCAACACAGCGUGACAAAGUGCCUGUGGCUAGACUGCC	0.04
GGCAUAGCUCAACACAGCGUGGCAAAGUUGCUGUGGAUAGACUGUC	0.02
GGCAUAGCUCAACACAGCGUGGCAAAAUGGCUGUGGCUAGACUGUC	0.06
GGCAUAGCUCAACACAGCGUGGCAAAUUGGCUGUGGCUAGUCUGCC	0.04
GGCAUAGCUCAACACAGCGUGGCAAAGUGGCUAAGGCUAGACUGCC	0.08
GGCAUAGCUCAACACAGCGUGUCGAAGUGGUUGUGGUUAGACUGCC	0.01
GGCAUAGCUCAACACAGCGUGGCAAACUGGCUCUGGCUAGACUUCC	0.11
